In PubChem BioAssay AID1460 (National Center for Advancing Translational Sciences (NCATS), 2008):
“And” between values parts separate entries of the source, which are not always exact repeats. Identical values can stand only once. Screen size: about 270,000 compounds; about 5,800 (2.1%) were called active. This list was built around the results that the source calls inconclusive (neither active nor inactive); the mix of calls is not that of the screen. Calls come from the whole dose curve; as a rule, active = well fitted inhibition curve with a large enough effect; inconclusive = small, poorly fitted or top-dose-only effect; inactive = flat fitted curve, though single readings scatter. Where the call is inconclusive, the potency comes from a doubtful curve fit.

biological target: Microtubule-associated protein tau (Homo sapiens) (UniProt P10636); assay: qHTS for Inhibitors of Tau Fibril Formation, Thioflavin T Binding; conditions: recombinant tau K18 P301L (four-repeat tau fragment), heparin-induced fibrillization, ThT fluorescence; series mostly up to 57.4 µM; activity, negative = inhibition: at the top concentration; note: nearly all actives have a fitted effect of over 55% in size
Procedure, shortened: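 Heparin-induced (20 uM) aggregation of recombinant human K18 P301L tau, 15 uM unlabeled with 0.24 uM labeled, pH 7 acetate buffer, 6 hr at 37 C with compound. Fibrils quantified by 30 uM ThT fluorescence after 1 hr ambient incubation.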
% is set by controls: 0 for no effect and ±100 for the full control effect; potency is the fitted concentration of half-maximal effect; tags give direction and shape of the fitted curve.

UniProt P10636, sequence (P10636 whole entry, looked up, the tested form may be a part): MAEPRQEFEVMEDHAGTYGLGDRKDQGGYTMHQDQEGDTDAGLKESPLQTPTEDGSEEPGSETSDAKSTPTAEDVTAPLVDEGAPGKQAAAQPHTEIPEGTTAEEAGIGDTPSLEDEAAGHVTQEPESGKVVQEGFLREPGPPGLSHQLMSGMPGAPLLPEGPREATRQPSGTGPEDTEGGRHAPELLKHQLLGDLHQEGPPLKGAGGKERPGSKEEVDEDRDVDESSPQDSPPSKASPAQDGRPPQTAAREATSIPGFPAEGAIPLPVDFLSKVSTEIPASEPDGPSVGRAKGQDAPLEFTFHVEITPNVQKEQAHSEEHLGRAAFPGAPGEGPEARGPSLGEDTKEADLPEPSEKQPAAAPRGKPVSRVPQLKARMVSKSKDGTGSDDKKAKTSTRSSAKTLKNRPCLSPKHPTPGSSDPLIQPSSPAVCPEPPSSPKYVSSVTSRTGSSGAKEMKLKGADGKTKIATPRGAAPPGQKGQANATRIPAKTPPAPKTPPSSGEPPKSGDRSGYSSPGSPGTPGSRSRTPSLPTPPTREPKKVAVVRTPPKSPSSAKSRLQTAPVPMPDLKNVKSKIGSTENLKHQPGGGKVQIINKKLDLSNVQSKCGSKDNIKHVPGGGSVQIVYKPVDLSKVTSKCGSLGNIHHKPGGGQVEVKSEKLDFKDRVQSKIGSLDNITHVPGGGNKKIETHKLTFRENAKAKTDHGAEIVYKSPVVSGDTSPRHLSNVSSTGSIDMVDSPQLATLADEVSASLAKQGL

| Structure (SMILES) | Potency | activity, negative = inhibition |
| --- | --- | --- |
| O=C1c2c(O)cc(O)cc2O[C@H](c2ccc(O)c(O)c2)[C@@H]1O | inconclusive: 17.8 µM [inhibitor, partial curve] | – |
| COc1ccc(NC(=O)C(=O)NCCc2sc(-c3ccc(Cl)cc3)nc2C)cc1 | inconclusive: 1.41 µM [inhibitor, full curve, poor fit] | – |
| COc1ccc(C(=O)/C=C/c2ccccc2F)c(OC(=O)c2ccc([N+](=O)[O-])cc2)c1 | inconclusive: 10 µM [inhibitor, partial curve] | – |
| CC(=O)NC(c1ccccc1)c1cc([N+](=O)[O-])c2cccnc2c1O (configuration not stated) | active: 10 µM | – |
| O=C(N/C=C/c1ccco1)NCc1ccccc1 | inconclusive: 15.8 µM [inhibitor, partial curve] | – |
| Cc1ccc(C)c(NC(=S)Nc2cccc3cnccc23)c1 | inconclusive: 28.2 µM [inhibitor, partial curve] | – |
| CN=c1scc(C)n1/N=C/c1ccc(O)cc1 | inconclusive: 15.8 µM [inhibitor, partial curve] | – |
| CCOC(=O)c1nnn(-c2ccc([N+](=O)[O-])cc2)c1C | inconclusive: 15.8 µM [inhibitor, partial curve] | – |
| CCc1ccccc1NC(=S)N1N=CCC1c1ccccc1 (configuration not stated) | – | inactive: -3.21% |
| CCN(CC)c1ccc(/C=N/OCC(=O)N2CCCc3ccccc32)cc1 | inconclusive: 20 µM [inhibitor, single point] | – |
| CC(C)c1nc(N(C)S(C)(=O)=O)nc(-c2ccc(F)cc2)c1/C=C/C(O)CC(O)CC(=O)O (configuration not stated) | – | inactive: 1.11% |
| CC(=O)Nc1nonc1-c1nc2ccccc2n1N(C(C)=O)C(C)=O | inconclusive: 39.8 µM [inhibitor, single point] | – |
| CC1CCN(c2cc3c(cc2F)c(=O)c(S(=O)(=O)c2cccc(Cl)c2)cn3Cc2ccccc2)CC1 | – | inactive: -3.49% |
| CCc1nnc(NC(=O)CSc2nnc(COc3cccc(C)c3)o2)s1 | inconclusive: 0.708 µM [inhibitor, partial curve] | – |
| CC1Cc2ccccc2N1C(=O)COC(=O)c1c2c(nc3ccccc13)CCCCC2 (configuration not stated) | inconclusive: 25.1 µM [inhibitor, single point] | – |
| COC(=O)c1ccc(C(=O)NC(=S)Nc2ccc3nc(SC)sc3c2)cc1 | inconclusive: 2 µM [inhibitor, full curve] | – |
| O=C(NC12CC3CC(CC(C3)C1)C2)c1ccc(-c2cccc(Cl)c2)o1 | inconclusive: 20 µM [inhibitor, single point] | – |
| Cc1[nH]c2ccccc2c1C(c1ccccn1)N1CCC(C)CC1 (configuration not stated) | inconclusive: 28.2 µM [inhibitor, partial curve] | – |
| Clc1c(CSc2nc3ccccc3o2)nc2sccn12 | inconclusive: 14.1 µM [inhibitor, partial curve, poor fit] | – |
| COc1ccc(/C=N/Nc2nc(-c3cccc(S(=O)(=O)N4CCCC4)c3)cs2)cc1OC | inconclusive: 8.91 µM [inhibitor, partial curve] | – |
| COc1ccc(NC(=O)N2CCc3nc(COc4ccccc4)c4c(c3C2)CO[C@@H](C)C4)cc1 | inconclusive: 8.91 µM [inhibitor, single point] | – |

| Structure (SMILES) | Potency | activity, negative = inhibition |
| --- | --- | --- |
| O=C1C(NS(=O)(=O)c2cccs2)=C(N2CCN(Cc3ccccc3)CC2)C(=O)c2ccccc21 | active: 15.8 µM | – |
| Cc1c(NC(=O)CN2CCN(c3ccc(O)cc3)CC2)c(=O)n(-c2ccccc2)n1C | inconclusive: 22.4 µM [inhibitor, partial curve] | – |
| CCOC(=O)c1c(NC(=O)C2C3CCC(O3)C2C(=O)O)sc(C)c1-c1ccc(F)cc1 (configuration not stated) | – | inactive: -8.18% |
| Nc1ccc(N)c(C(=O)O)c1 | active: 14.1 µM | – |
| Nc1ccc2nc(C(F)(F)F)[nH]c2c1 | inconclusive: 10 µM [inhibitor, partial curve] | – |
| COC(=O)CNC(=O)COC(=O)c1ccc(Cl)nc1 | – | inactive: -5.04% |
| CC(Nc1cc(N2CCCC2)ccc1[N+](=O)[O-])c1ccccc1 (configuration not stated) | inconclusive: 2.82 µM [inhibitor, full curve] | – |
| COc1cc2c(cc1OC)CN(Cc1cc(=O)n3c(-c4ccccc4)csc3n1)CC2 | inconclusive: 35.5 µM [inhibitor, single point] | – |
| COc1ccc(C(=O)C2CC2c2ccc3c(c2)OCO3)cc1 (configuration not stated) | inconclusive: 28.2 µM [inhibitor, single point] | – |
| Cc1cccc(CCNC(=O)C2CCC(CNS(=O)(=O)c3c(C)cc(C)cc3C)CC2)c1 (configuration not stated) | – | inactive: -17.2% |
| Cn1nnnc1SCCNCc1cc(Cl)ccc1OCc1ccccc1 | – | inactive: -14.4% |
| Cc1ccc(NCC(=O)N/N=C/c2c[nH]c3ccccc23)cc1 | inconclusive: 22.4 µM [inhibitor, partial curve] | – |
| COC(=O)[C@@]1(Cc2ccc(OC)cc2)[C@H]2c3cc(C(=O)N4CCCC4)n(Cc4ccc(C)o4)c3C[C@H]2CN1C(=O)c1ccccc1 | inconclusive: 12.6 µM [inhibitor, partial curve, poor fit] and inconclusive: 14.1 µM [inhibitor, partial curve, poor fit] | – |
| O=C(CSCc1ccc(Br)cc1)N=Nc1c(O)[nH]c2ccccc12 | inconclusive: 20 µM [inhibitor, single point] | – |
| CCOC(=O)c1sc2nc(CC(=O)OC)nc(NCc3ccco3)c2c1C | inconclusive: 25.1 µM [inhibitor, partial curve] | – |
| COc1ccc(Nc2c3c(nc4ccccc24)CCCC3)cc1OC | – | inactive: -14.5% |
| CCOC(=O)c1c(C(C)(C)C)oc2ccc(OCC#N)cc12 | inconclusive: 31.6 µM [inhibitor, single point] | – |
| CCOC(=O)c1c(NC(=O)c2ccc(S(=O)(=O)N3CCC(C)CC3)cc2)sc2c1CCN(C(C)C)C2 | inconclusive: 44.7 µM [inhibitor, single point] | – |
| CCCCn1c(=O)c(C(=O)c2ccccc2)nc2ccccc21 | – | inactive: -8.92% |
| CC(=O)c1c(C(C)=O)c(C)n(-c2nc(-c3cccs3)c(C)s2)c1C | inconclusive: 20 µM [inhibitor, single point] | – |
| COc1ccc(CC2(CO)CCN(S(=O)(=O)c3sccc3C)CC2)cc1 | – | inactive: -9.18% |
